# According to the supplement of paper PMC4967469:
# Compound: Cc1cccc(-c2[nH]c(C(C)(C)C)nc2-c2ccc3nccnc3c2)n1 [SB-525334]
# Assay: Viability of human cancer cell lines after 72 h of drug (GDSC screen)
# Settings: top dose 20 µM; top dose inferred
# Protocol: (§1)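 Human cancer cell lines in 384-well plates, medium with 10% serum, drug for 72 h over a 256-fold dose range (nine 2-fold or five 4-fold steps up to the top dose). Adherent lines were fixed and stained with the nucleic acid dye Syto60, suspension lines read with resazurin; signal relative to control wells, capped at 0 and 100%. One two-parameter sigmoid per drug and line, fitted in a mixed model over all curves with the slope shared within a line.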
Cell Line,AUC,IC50 [µM]
"LS-513 (large intestine, adherent)",0.893,> 20
"LS-1034 (large intestine, adherent)",0.837,15.4
"LU-65 (large cell lung carcinoma, suspension)",0.965,> 20
"MC-CAR (haematopoietic neoplasm, suspension)",0.961,> 20
"MDST8 (large intestine, adherent)",0.893,> 20
"MLMA (hairy cell leukaemia, semi-adherent)",0.927,> 20
"MMAC-SF (melanoma, adherent)",0.987,> 20
"MN-60 (B-cell leukaemia, suspension)",0.907,> 20
"MSTO-211H (mesothelioma, adherent)",0.985,> 20
"MZ1-PC (pancreas, adherent)",0.82,15.2

# Compound: CC(C)=CC[C@@H](O)C1=CC(=O)c2c(O)ccc(O)c2C1=O [Shikonin]
# Assay: as above
# Settings: top dose 16 µM; top dose inferred
# Protocol: as §1
Cell Line,AUC,IC50 [µM]
"LS-513 (large intestine, adherent)",0.632,2.35
"LS-1034 (large intestine, adherent)",0.603,1.98
"LU-65 (large cell lung carcinoma, suspension)",0.821,11.5
"MC-CAR (haematopoietic neoplasm, suspension)",0.46,0.787
"MDST8 (large intestine, adherent)",0.527,1.18
"MLMA (hairy cell leukaemia, semi-adherent)",0.33,0.335
"MMAC-SF (melanoma, adherent)",0.471,0.828
"MN-60 (B-cell leukaemia, suspension)",0.369,0.427
"MSTO-211H (mesothelioma, adherent)",0.984,> 16
"MZ1-PC (pancreas, adherent)",0.196,0.096

# Compound: O=C(c1cc(Cc2n[nH]c(=O)c3ccccc23)ccc1F)N1CCN(C(=O)C2CC2)CC1 [Olaparib]
# Assay: as above
# Settings: top dose 5 µM; screen: GDSC drug entry 1017; top dose inferred
# Protocol: as §1
Cell Line,AUC,IC50 [µM]
"LS-513 (large intestine, adherent)",0.984,> 5
"LS-1034 (large intestine, adherent)",0.978,> 5
"LU-65 (large cell lung carcinoma, suspension)",0.987,> 5
"MC-CAR (haematopoietic neoplasm, suspension)",0.989,> 5
"MDST8 (large intestine, adherent)",0.944,> 5
"MLMA (hairy cell leukaemia, semi-adherent)",0.961,> 5
"MMAC-SF (melanoma, adherent)",0.986,> 5
"MN-60 (B-cell leukaemia, suspension)",0.981,> 5
"MSTO-211H (mesothelioma, adherent)",0.991,> 5
"MZ1-PC (pancreas, adherent)",0.973,> 5

# Same assay, conditions: top dose 10 µM; screen: GDSC drug entry 1495
Cell Line,AUC,IC50 [µM]
"LS-513 (large intestine, adherent)",0.982,> 10
"LS-1034 (large intestine, adherent)",0.985,> 10
"LU-65 (large cell lung carcinoma, suspension)",0.983,> 10
"MC-CAR (haematopoietic neoplasm, suspension)",0.985,> 10
"MDST8 (large intestine, adherent)",0.986,> 10
"MLMA (hairy cell leukaemia, semi-adherent)",0.972,> 10
"MMAC-SF (melanoma, adherent)",0.973,> 10
"MN-60 (B-cell leukaemia, suspension)",0.981,> 10
"MZ1-PC (pancreas, adherent)",0.934,> 10

# Compound: COc1cc(N2CCN(C)CC2)ccc1Nc1ncc2c(n1)N(C)c1ccccc1C(=O)N2C [XMD8-85]
# Assay: as above
# Settings: top dose 8 µM; top dose inferred
# Protocol: as §1
Cell Line,AUC,IC50 [µM]
"LS-513 (large intestine, adherent)",0.823,4.97
"LS-1034 (large intestine, adherent)",0.918,> 8
"LU-65 (large cell lung carcinoma, suspension)",0.953,> 8
"MC-CAR (haematopoietic neoplasm, suspension)",0.787,3.08
"MDST8 (large intestine, adherent)",0.981,> 8
"MLMA (hairy cell leukaemia, semi-adherent)",0.957,> 8
"MMAC-SF (melanoma, adherent)",0.966,> 8
"MN-60 (B-cell leukaemia, suspension)",0.912,> 8
"MSTO-211H (mesothelioma, adherent)",0.987,> 8
"MZ1-PC (pancreas, adherent)",0.912,> 8

# Compound: O=C1NC(=O)c2c1c(-c1ccccc1Cl)cc1[nH]c3ccc(O)cc3c21 [Wee1 inhibitor 681640]
# Assay: as above
# Settings: top dose 2 µM; top dose inferred
# Protocol: as §1
Cell Line,AUC,IC50 [µM]
"LS-513 (large intestine, adherent)",0.986,> 2
"LS-1034 (large intestine, adherent)",0.98,> 2
"LU-65 (large cell lung carcinoma, suspension)",0.986,> 2
"MC-CAR (haematopoietic neoplasm, suspension)",0.949,> 2
"MDST8 (large intestine, adherent)",0.945,> 2
"MLMA (hairy cell leukaemia, semi-adherent)",0.699,0.455
"MMAC-SF (melanoma, adherent)",0.986,> 2
"MN-60 (B-cell leukaemia, suspension)",0.988,> 2
"MSTO-211H (mesothelioma, adherent)",0.942,> 2
"MZ1-PC (pancreas, adherent)",0.959,> 2

# Compound: CNC(=O)c1ccc(Nc2cc(Nc3ccccc3S(=O)(=O)C(C)C)c3cc[nH]c3n2)nc1 [HG-5-113-01]
# Assay: as above
# Settings: top dose 10 µM; top dose inferred
# Protocol: as §1
Cell Line,AUC,IC50 [µM]
"LS-513 (large intestine, adherent)",0.818,5.94
"LS-1034 (large intestine, adherent)",0.915,> 10
"LU-65 (large cell lung carcinoma, suspension)",0.976,> 10
"MC-CAR (haematopoietic neoplasm, suspension)",0.553,0.86
"MDST8 (large intestine, adherent)",0.816,5.5
"MLMA (hairy cell leukaemia, semi-adherent)",0.728,2.8
"MMAC-SF (melanoma, adherent)",0.819,6.03
"MN-60 (B-cell leukaemia, suspension)",0.804,5.25
"MSTO-211H (mesothelioma, adherent)",0.707,2.24
"MZ1-PC (pancreas, adherent)",0.63,1.56

# Compound: Cc1cc(N2CCOCC2)cc2[nH]c(-c3c(NC[C@@H](O)c4cccc(Cl)c4)cc[nH]c3=O)nc12 [BMS-536924]
# Assay: as above
# Settings: top dose 4 µM; screen: GDSC drug entry 1091; top dose inferred
# Protocol: as §1
Cell Line,AUC,IC50 [µM]
"LS-513 (large intestine, adherent)",0.893,> 4
"LS-1034 (large intestine, adherent)",0.83,2.87
"LU-65 (large cell lung carcinoma, suspension)",0.976,> 4
"MC-CAR (haematopoietic neoplasm, suspension)",0.97,> 4
"MDST8 (large intestine, adherent)",0.944,> 4
"MLMA (hairy cell leukaemia, semi-adherent)",0.886,> 4
"MMAC-SF (melanoma, adherent)",0.794,1.93
"MN-60 (B-cell leukaemia, suspension)",0.963,> 4
"MSTO-211H (mesothelioma, adherent)",0.902,> 4
"MZ1-PC (pancreas, adherent)",0.729,1.33

# Same assay, conditions: top dose 5.12 µM; screen: GDSC drug entry 62
Cell Line,AUC,IC50 [µM]
"LS-513 (large intestine, adherent)",0.825,3.24
"LS-1034 (large intestine, adherent)",0.601,0.623
"LU-65 (large cell lung carcinoma, suspension)",0.784,2.6
"MC-CAR (haematopoietic neoplasm, suspension)",0.908,> 5.12
"MDST8 (large intestine, adherent)",0.94,> 5.12
"MLMA (hairy cell leukaemia, semi-adherent)",0.732,1.48
"MMAC-SF (melanoma, adherent)",0.571,–
"MN-60 (B-cell leukaemia, suspension)",0.959,> 5.12
"MSTO-211H (mesothelioma, adherent)",0.957,> 5.12
"MZ1-PC (pancreas, adherent)",0.63,0.802

# Compound: CCNc1cc(NC2CCC(O)CC2)nc(Nc2ccc3c(ccn3Cc3ccccc3)c2)n1 [CGP-082996 (CINK4)]
# Assay: as above
# Settings: top dose 5.12 µM; top dose inferred
# Protocol: as §1
Cell Line,AUC,IC50 [µM]
"LS-513 (large intestine, adherent)",0.987,> 5.12
"LS-1034 (large intestine, adherent)",0.913,> 5.12
"LU-65 (large cell lung carcinoma, suspension)",0.985,> 5.12
"MC-CAR (haematopoietic neoplasm, suspension)",0.929,> 5.12
"MDST8 (large intestine, adherent)",0.987,> 5.12
"MLMA (hairy cell leukaemia, semi-adherent)",0.962,> 5.12
"MMAC-SF (melanoma, adherent)",0.97,> 5.12
"MN-60 (B-cell leukaemia, suspension)",0.973,> 5.12
"MSTO-211H (mesothelioma, adherent)",0.981,> 5.12
"MZ1-PC (pancreas, adherent)",0.901,> 5.12

# Compound: NC(=O)c1ccc(N(C(N)=O)c2c(F)cccc2F)nc1-c1ccc(F)cc1F [VX-702]
# Assay: as above
# Settings: top dose 2 µM; top dose inferred
# Protocol: as §1
Cell Line,AUC,IC50 [µM]
"LS-513 (large intestine, adherent)",0.976,> 2
"LS-1034 (large intestine, adherent)",0.969,> 2
"LU-65 (large cell lung carcinoma, suspension)",0.987,> 2
"MC-CAR (haematopoietic neoplasm, suspension)",0.989,> 2
"MDST8 (large intestine, adherent)",0.984,> 2
"MLMA (hairy cell leukaemia, semi-adherent)",0.969,> 2
"MMAC-SF (melanoma, adherent)",0.973,> 2
"MN-60 (B-cell leukaemia, suspension)",0.982,> 2
"MSTO-211H (mesothelioma, adherent)",0.991,> 2
"MZ1-PC (pancreas, adherent)",0.951,> 2

# Compound: COc1cc(-c2nn([C@H]3CC[C@H](N4CCN(C(C)=O)CC4)CC3)c3ncnc(N)c23)ccc1NC(=O)c1cc2ccccc2n1C [A-770041]
# Assay: as above
# Settings: top dose 5.12 µM; top dose inferred
# Protocol: as §1
Cell Line,AUC,IC50 [µM]
"LS-513 (large intestine, adherent)",0.969,> 5.12
"LS-1034 (large intestine, adherent)",0.903,> 5.12
"LU-65 (large cell lung carcinoma, suspension)",0.942,> 5.12
"MC-CAR (haematopoietic neoplasm, suspension)",0.795,2.09
"MDST8 (large intestine, adherent)",0.98,> 5.12
"MLMA (hairy cell leukaemia, semi-adherent)",0.441,0.22
"MMAC-SF (melanoma, adherent)",0.878,> 5.12
"MN-60 (B-cell leukaemia, suspension)",0.983,> 5.12
"MSTO-211H (mesothelioma, adherent)",0.982,> 5.12
"MZ1-PC (pancreas, adherent)",0.611,0.695

# Compound: Cc1ccc(-n2nc(C(C)(C)C)cc2NC(=O)Nc2ccc(OCCN3CCOCC3)c3ccccc23)cc1 [BIRB 0796]
# Assay: as above
# Settings: top dose 10 µM; top dose inferred
# Protocol: as §1
Cell Line,AUC,IC50 [µM]
"LS-513 (large intestine, adherent)",0.981,> 10
"LS-1034 (large intestine, adherent)",0.985,> 10
"LU-65 (large cell lung carcinoma, suspension)",0.987,> 10
"MC-CAR (haematopoietic neoplasm, suspension)",0.989,> 10
"MDST8 (large intestine, adherent)",0.963,> 10
"MLMA (hairy cell leukaemia, semi-adherent)",0.909,> 10
"MMAC-SF (melanoma, adherent)",0.96,> 10
"MN-60 (B-cell leukaemia, suspension)",0.988,> 10
"MSTO-211H (mesothelioma, adherent)",0.991,> 10
"MZ1-PC (pancreas, adherent)",0.954,> 10

# IC50 is the fitted dose that halves viability relative to control wells, and lower means more sensitive; a fit beyond the top or the lowest dose is shown as a bound at that dose. AUC sums up the same curve from the lowest dose to the 256-fold higher top dose: 1 means no effect, lower means more sensitive. An inferred top dose is not printed in the source and was worked back from the curve model. For some assays here: An entry number marks a drug with two screens in the source, which often give different values.
